± gives the uncertainty stated by the source. The sequences are guide strands of siRNAs; only the seed at positions 2 to 7 varies.
What was measured:
3LL = experiment: cell viability relative to siNT1 control; higher = less toxic; details: concentration: 10 nM; 96 h; Mus musculus;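 further: Luminescence-based viability of cells reverse transfected in 384-well plates with lipid-complexed siRNAs built on a non-toxic 19mer backbone whose passenger strand carries 2′-O-methyl groups at positions 1 and 2, triplicates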
H460 = experiment: cell viability relative to lipid-only control; HeyA8 human ovarian and H460 human lung cancer; M565 mouse liver and 3LL mouse lung cancer; siNT1 is a non-toxic control siRNA; higher = less toxic; details: concentration: 10 nM; 96 h; Homo sapiens
HeyA8 = experiment: as above; details: concentration: 10 nM; 96 h; Homo sapiens
M565 = experiment: as above; details: concentration: 10 nM; 96 h; Mus musculus
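Wherever cell viability relative to lipid-only control is given: reverse lipid transfection in 384-well plates, in triplicate, of duplexes on a non-toxic 19mer backbone with passenger strand 2′-O-methylated at positions 1 and 2, luminescence viability read-out.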

Sequence | cell viability (3LL) [%] | cell viability (H460) [%] | cell viability (HeyA8) [%] | cell viability (M565) [%]
UAACUGUACAUGUAAACCAAA | 34.8 ± 5.7 | 57.9 ± 3.8 | 25.2 ± 2.9 | 16.5 ± 3.1
UGCGCCAACAUGUAAACCAAA | 61.3 ± 9.2 | 79 ± 21 | 83.6 ± 5.8 | 67.7 ± 4.5
UUGGAUCACAUGUAAACCAAA | 22.2 ± 5.8 | 38.7 ± 5.6 | 35.4 ± 3 | 73.4 ± 5.8
UUUUCUCACAUGUAAACCAAA | 88.8 ± 6.8 | 52.7 ± 4.9 | 75.3 ± 6.5 | 99.2 ± 12
UACACCUACAUGUAAACCAAA | 63.4 ± 5 | 26 ± 1.8 | 6.22 ± 0.49 | 27.9 ± 6.1
UUUGAACACAUGUAAACCAAA | 95.5 ± 7 | 96.7 ± 12 | 90.5 ± 3.5 | 98.8 ± 17
UUUGGCAACAUGUAAACCAAA | 69.1 ± 6.9 | 79.8 ± 8.6 | 100 ± 4.5 | 41.4 ± 7.5
UCUAAGAACAUGUAAACCAAA | 94.2 ± 13 | 68.2 ± 8.3 | 85 ± 7.8 | 62.8 ± 8.8
UGUGUCUACAUGUAAACCAAA | 14.9 ± 9.3 | 48.5 ± 2.3 | 19 ± 3.5 | 35.5 ± 6.8
UCGCUUUACAUGUAAACCAAA | 94.6 ± 22 | 60 ± 4.4 | 69 ± 1.1 | 56.5 ± 9.5
UUUCGACACAUGUAAACCAAA | 90.3 ± 7.6 | 70.3 ± 7.3 | 86.4 ± 5.8 | 67.8 ± 5.4
UACUGUAACAUGUAAACCAAA | 87.4 ± 16 | 71.9 ± 18 | 100 ± 4.5 | 46 ± 11
UAUGGUUACAUGUAAACCAAA | 105 ± 23 | 70.5 ± 4.8 | 93.8 ± 7 | 94.4 ± 22
UGCAAGUACAUGUAAACCAAA | 22.1 ± 7.4 | 67.8 ± 3.1 | 80.3 ± 9.1 | 42.5 ± 6.2
UCGGGCCACAUGUAAACCAAA | 8.41 ± 2.9 | 18.2 ± 2.5 | 4.52 ± 0.096 | 4.07 ± 0.048
UCCAUGCACAUGUAAACCAAA | 13.5 ± 2.4 | 36.3 ± 3.3 | 10.7 ± 0.38 | 11.3 ± 1.9
UGCCCCUACAUGUAAACCAAA | 18.1 ± 4.6 | 72.5 ± 5.5 | 72.7 ± 6 | 17.6 ± 3.6
UAAUAAAACAUGUAAACCAAA | 122 ± 9.8 | 112 ± 5.2 | 101 ± 3.8 | 89.9 ± 16
UGUAGCGACAUGUAAACCAAA | 63.5 ± 16 | 78.3 ± 19 | 62.3 ± 10 | 44 ± 11
UGUUUUCACAUGUAAACCAAA | 82.1 ± 5.7 | 81.1 ± 9.4 | 17.1 ± 1.9 | 84.7 ± 7.3
UUCUCGGACAUGUAAACCAAA | 78.4 ± 4.1 | 59.8 ± 5.9 | 87.9 ± 5.1 | 74.9 ± 4.4
UUGAUCGACAUGUAAACCAAA | 84.1 ± 3.4 | 63 ± 2.1 | 77.6 ± 8.8 | 76.7 ± 4.7
UAUUUUGACAUGUAAACCAAA | 109 ± 27 | 80.4 ± 8.1 | 90.6 ± 9.7 | 106 ± 6.8
UGGCAUAACAUGUAAACCAAA | 90.1 ± 3.5 | 49.7 ± 7.1 | 32.7 ± 3 | 42.8 ± 3.3
UUUCGGAACAUGUAAACCAAA | 95.1 ± 5.8 | 69.2 ± 3.3 | 98.6 ± 4.6 | 65.3 ± 12
UCGAGUAACAUGUAAACCAAA | 91.8 ± 22 | 87.5 ± 16 | 95.1 ± 5.2 | 76.8 ± 7.7
UCAAGACACAUGUAAACCAAA | 27.1 ± 2.6 | 59.5 ± 2.2 | 49 ± 4.2 | 15.3 ± 2.7
UACUGACACAUGUAAACCAAA | 17 ± 1 | 50.7 ± 1.5 | 35.3 ± 2.4 | 6.29 ± 1.2
UCGCGGCACAUGUAAACCAAA | 10.9 ± 3.4 | 21.8 ± 0.88 | 4.54 ± 0.29 | 9.21 ± 0.83
UAAACGAACAUGUAAACCAAA | 86.1 ± 5.5 | 77.6 ± 19 | 81.7 ± 16 | 67.2 ± 10
